PMC9588639 (Journal of thrombosis and haemostasis : JTH, 2022)

Target: human GPIbα LBD (mature protein residues 1-290) W230L (human, UniProt P07359 17-306, W230L)
Test: BLI

Chain of UniProt P07359 (P07359 17-306 W246L): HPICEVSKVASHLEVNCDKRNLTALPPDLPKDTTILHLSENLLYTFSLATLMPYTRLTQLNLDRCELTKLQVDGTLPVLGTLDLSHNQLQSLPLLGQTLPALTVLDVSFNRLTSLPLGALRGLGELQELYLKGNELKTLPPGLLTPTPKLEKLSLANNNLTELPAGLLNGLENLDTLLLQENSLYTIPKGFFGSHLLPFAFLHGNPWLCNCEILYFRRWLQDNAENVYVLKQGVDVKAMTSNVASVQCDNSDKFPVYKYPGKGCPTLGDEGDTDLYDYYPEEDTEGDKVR

B1: recombinant hAIM-A1 protein, containing […] of human VWF (domain or fragment)
chain: not shown
binding result: binds
